Columns and labels:
[1] = system: carbachol-induced bradycardia (mainly muscarinic M2 receptors); experiment: Carbachol induced bradycardia in anesthetized rats; format: in vivo, rat; settings: i.v.
[2] = system: rabbit eyes (pupil size); parameters: AUC^eff0-168 h: unit not given beside the values; settings: conc. 0.5%

CCOC(=O)C[N+]1(C)[C@@H]2C[C@@H](OC(=O)C(O)(c3cccs3)c3cccs3)C[C@H]1[C@@H]1O[C@@H]12 (stereo partly drawn) [Compound (w), 6β,7β-epoxy-3,8-hydroxy-8-ethoxycarbonylmethyl-8-methyl-1αH,5αH-tropaniun bromide, di-2-thienylglycolate]
bradycardia protective effect [1]: less active than an equimolar dose of atropine

tropicamide
AUC^eff0-168 h [2]: 451 ± 121 | Rmax (%) ([2]; 0.1 mL topical, maximum % change in pupil size): 44.64 ± 11.17%
